# According to PMC10726135:
# Some of the results follow. At the low end of the ranking, values are background and their order means little. The protein was read in a cell extract, so binding may be indirect.
# Target: T1, HNF4alpha8 (COS-7 nuclear extract) (UniProt P41235-5)
# T1 sequence: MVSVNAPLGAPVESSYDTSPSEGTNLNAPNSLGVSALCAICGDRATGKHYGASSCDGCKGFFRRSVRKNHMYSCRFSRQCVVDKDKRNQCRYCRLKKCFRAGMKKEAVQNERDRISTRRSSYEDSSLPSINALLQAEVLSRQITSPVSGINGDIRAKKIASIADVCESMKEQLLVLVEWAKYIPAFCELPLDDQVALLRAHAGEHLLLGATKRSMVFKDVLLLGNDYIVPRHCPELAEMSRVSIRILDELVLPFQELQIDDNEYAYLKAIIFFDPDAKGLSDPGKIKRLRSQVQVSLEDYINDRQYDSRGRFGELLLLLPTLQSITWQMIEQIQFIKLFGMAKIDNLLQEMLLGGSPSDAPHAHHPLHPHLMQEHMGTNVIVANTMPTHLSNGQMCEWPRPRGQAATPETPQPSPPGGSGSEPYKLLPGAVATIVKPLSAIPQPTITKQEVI
# Test: protein-binding microarray
# Conditions: COS-7 nuclear extract on double-stranded Agilent 4x180k PBM; binding buffer, salt, pH and temperature not given; high values mean tight binding; double strand, one strand shown; sequences stand for … in …GCCTAGGGAGATTAGAGTATCGGTCGA
row,Sequence,binding signal (log2 normalized intensity)
1,GCACATGGCATGATCCCTGACTCATAGCTC,-0.946
2,TGCCTAGAGGCCTGGGAATGCCTAGGGGGA,-1.36
3,GCTGTATGTTCTAACCATAGGAGGCTGGTC,0.473
4,TGTTAGCACTCAGTCATTGCCATCTGCAAG,-1.27
5,TTCTAGACACCAAACACAGTTGCTGTCTAG,-0.678
6,CTGGGCGCTGGGAAGACAGTCTTGGGCACA,-1.32
7,CACTCAGCTGTGTCTACCCTTTTGCCCTTT,6.29
8,GGAGCGGCCTGCACCTGTTTCTGGAGAATG,-1.26
9,GAGTGTCAGAGGCTAAACCTAGCCCCCTTT,3.1
10,AGCGGGGGCAAGCCCACTCTCTGAGTCTGA,-1.29
11,CCCTTGGCCTACTTAGTCCAGGTTTAGCAA,-0.533
12,GACAGGATGGGGGTGGGAGGCTGGGAGGAG,-1.34
13,CAAATATTTGCCTAGGATTCTGGGAGGGGA,-1.22
14,CAGCACCAAGAACAAACAAAAACCAAAAAA,-1.26
15,AACATGTAGGTCAAAGAATGCCTGGGTCAA,1.82
16,TCAGTGAGCCTTGACCTTCATGCTACTGTG,2.34
17,CCAAAGAAGCCACAGAAGTCTTTCCCTGCC,-1.19
18,AAGATTCAGAACCCATTAATTTAGCACTTA,-1.22
19,TTAGGTGCTGAGCAACTATAAAACAGGAAA,-1.26
20,TTGGACTTTGGTCATCCTTTACTTTCCCAA,6.14
21,GCAAATAGGATTAGGAAACCTGGTAGCGTG,-1.23
22,AACTTGTTTTTGATTTTGCAGGCTGATAGG,1.01
23,ATCAGAGTCCAGCTGTGCCCCAGTCCTTCA,1.38
24,AGATAAATAAATCAAGATCACTGCCTTGGA,-1.31

row,Sequence,binding signal (log2 normalized intensity)
1,GCCAGCACAGGAGGCCTCTCAAAGCAGGAT,-1.37
2,GGGCTAGAGCTTAAAAGCCCAACACGGGCG,-1.27
3,TGGGCTGGGAGCTAATGAGCACATTCTTCA,-1.3
4,TTCCCTGTCGCTATCTTATCTGGGCCAGGT,0.392
5,GGACTGGGCTGGAACACAAAGAAAGCCAAA,-1.29
6,CTGTCGGAATTTGCCCTGTGGTCTAGCTTG,2.26
7,GACAGAAACCAAGCTGTCCGACTGCACACC,-1.31
8,GAATGTATTGAGAAGAAACCTTTGCCCAAC,3.64
9,ACCTTTGATCATTTGAGGGTGACACTGCTC,1.66
10,CTGACTGGAAGAGCCTGCAAGGGAGACCAG,-1.36
11,GCCTTTTACCTTGGCAGCCACTGAGGCTCT,-1.05
12,CACTCCCACACTGGTAACCTTTAGTCTCCA,4
13,GAAAGTAGTTGGGGATTGTGTAACATCTAA,-0.201
14,AGGTAGGGCCTACCTGCCTGAGCTATCTGT,-1.13
15,TATTCCATATCAGCTTTCTTTTCCAACCAT,1.18
16,AACAAAAAGGGCAAAGGTCAGCTCATTCCC,6.81
17,CCACTGCGACCTTTGCCCTCCCTAAATCCA,7.84
18,AGGCAATGACTCCAAAGTTCAAACTCTGAA,2.84
19,GAGGCCAGTTTGACCTTTGCATTCTTACCC,7.03
20,GTTAAGACCTACATTAAGACCACCTCTATG,-1.28
21,CCCTCAGGGAATCCTGCATTATCAGGCAAG,-0.72
22,GCAGGGAGGAGCGCATCGGGCGCCAGCGCC,-1.36
23,CCAGACAGGGGGGCGCCTACGGACGGGTAA,-1.39
24,TACCCCTGTGGTTGACCTTTAGTCTCTAGC,7.47

row,Sequence,binding signal (log2 normalized intensity)
1,ATTTCACCCAGGTATGACAAGCATGCACTG,-1.29
2,TCCTCACCCCACTTTGGTTCACCGCTCACT,1.08
3,GTGGCTATGGCTGGGATATCAGGTATTGCC,-0.907
4,CCTGTGTGTACTGGGCAGATAACAGCGAAC,-0.211
5,TCTGGTCAGACTGAGAGAGCAGGGCCCGAG,-1.31
6,GGAAGGTTTCACCCTGAGGAATCCCATTCC,-0.915
7,TGCCAACAGGTGCTCTTTATCAGCACCAAG,-1.32
8,CTCTGGATGCAGGTCGCCGGGAAAACCCGG,-1.1
9,CCAGGCGACTGGGCCAGGAGCAGGAGCAGA,-1.28
10,CAAGAGGTTTTAGGCTATCAGACAGCCACA,-1.21
11,GAGCAAAGCTGATAAAGAGGACAGAGCCTG,-1.04
12,GGATCCGCAGCCAGGGCTGTTTTCTCCAGT,-1.29
13,TTGCCATGTGACAATTCTTCCTTCATCTGG,0.528
14,GCCCAGAGGAAGGAATGCACATGCCTTAAG,-1.35
15,GGCTTAAACCTTTAATGATGAGTCCAAGTT,2.92
16,TAGCATAATCAAAGAGAAAAACATTGCATA,-1.19
17,AGAATCTAATCAGGCCTCCCTCCCTCCCCC,5.62
18,AATGGATGGCAAATAAAGGAACTCTTATCT,-1.27
19,GAATTGTCTAACCGCAGCAAGACACTTCCA,-1.47
20,GCATCACTCTTGCCACAGAACAGGCTGTTT,-1.35
21,CACAAGCTGGGTCAACATCAGCCCTCCTAG,1.31
22,TCATCTTCAAAGCCAGCAATGGCAGGTCCA,1.81
23,ATAGTCATTCTTCTACAGTGTTTACCGGAT,1.9
24,AGTGCTATCCCTGGAGCCTTAGAAGATGAC,-1.35

row,Sequence,binding signal (log2 normalized intensity)
1,TTCAGGGAGACTTCCAGGGAATAAAGAACT,-1.34
2,GGGTCAAGAAGACCTGGGCTCAAATCTGGA,-1.22
3,CCTATTCTGAAGATTGCTAGCTGAGAGACT,-1.35
4,CATGAATCCATCCCACCTCACTTATCACAT,0.977
5,AATCCTCCACTCTCCAAAATAGGGTAGTTT,0.954
6,TATTAGGAAATTGTCAGTGCCCTATACAGA,1.32
7,AAGGGTCCAGATTAGAGCACAATGTGGGGA,0.419
8,AGAGGTATCATGAGGTATATTCAACCCCCA,4.45
9,GGGCTGGGGAAACAAAATAATAGTTGACCT,4.83
10,CATGTTTGGGTCACAATCACAAATGCCTTC,0.351
11,TCCCATGGCTAATCTGTGACTGAGCAGAGA,0.339
12,TTTAATGATGAGTCCAAGTTCCACATCAAG,1.88
13,AGCTGTCTGGTTTGACCTTAAGTCAGAAGA,3.88
14,TTCCTCAGATGGAATGTGTGCCCGTCACCT,1.61
15,CGTCCGCGGAAGCACACACGAGCTGTGCGC,-1.27
16,TCTTTTTTCTGAAGACCTTCAACTGATTAG,0.461
17,AAATAGCTGGGTCTCACTCTGACCCCTCCC,5.09
18,GGTTGTCAGACTGGTGTAGTGGGGAGGGCA,1.35
19,TTAGAGAACGGGTCAAGAGGGACAAAATGC,-1.36
20,TGCATTCCATCAGTAGTATTACCTGCATCT,0.719
21,ATTCTCACCACTAGGAAACTGACCTTTGCT,6.07
